Assay results from US7517874B2 (priority 2007, dated 2009).
Like-named read-outs stand apart in the source and are kept apart here.

Target: human CB2 receptor (hCB2) (Homo sapiens, UniProt P34972)
Assay: cell-based
Assay type: cell-based
Settings: for +/− HCB2: agonist or inverse agonist at hCB2

Sequence of human CB2 receptor (hCB2) (P34972 whole entry): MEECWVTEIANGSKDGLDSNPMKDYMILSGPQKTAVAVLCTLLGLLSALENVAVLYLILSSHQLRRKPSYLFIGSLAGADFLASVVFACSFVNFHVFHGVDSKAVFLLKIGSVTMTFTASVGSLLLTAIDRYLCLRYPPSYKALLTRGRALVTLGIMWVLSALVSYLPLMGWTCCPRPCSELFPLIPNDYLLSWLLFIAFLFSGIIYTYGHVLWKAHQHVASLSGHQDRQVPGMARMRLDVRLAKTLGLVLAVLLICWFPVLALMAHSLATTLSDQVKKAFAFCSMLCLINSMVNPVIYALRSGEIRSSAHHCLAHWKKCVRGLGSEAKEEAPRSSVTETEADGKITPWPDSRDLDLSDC

| Compound | EC50 [nM] | +/− HCB2 | other results |
| --- | --- | --- | --- |
| CNC(=O)[C@@H](NC(=O)c1nc(-c2cc(C(F)(F)F)cc(C(F)(F)F)c2)n2c1CN(C)CCC2)C(C)(C)C [Compound 599, (S)-3-(3,5-bis(trifluoromethyl)phenyl)-N-(3,3-dimethyl-1-(methylamino)-1-oxobutan-2-yl)-8-methyl-6,7,8,9-tetrahydro-5H-imidazo[1,5-a][1,4]diazepine-1-carboxamide] | > 10000 |  |  |
| C[C@H](NC(=O)c1nc(-c2ccccc2)n2c1CNCC2)C(C)(C)C [Compound 27, (s)-N-(3,3-dimethylbutan-2-yl)-3-phenyl-5,6,7,8-tetrahydroimidazo[1,5-a]pyrazine-1-carboxamide] |  | + |  |
| CNC(=O)[C@H](CC(C)(C)C)NC(=O)c1nc(-c2cc(F)ccc2F)n2c1CN(C)CCC2 [Compound 553, (S)-3-(2,5-difluorophenyl)-N-(4,4-dimethyl-1-(methylamino)-1-oxopentan-2-yl)-8-methyl-6,7,8,9-tetrahydro-5H-imidazo[1,5-a][1,4]diazepine-1-carboxamide] | > 10000 |  |  |
| CN1CCn2c(-c3ccc(Cl)cc3F)nc(C(=O)Nc3ccc(S(N)(=O)=O)cc3)c2C1 [Compound 208, 3-(4-chloro-2-fluorophenyl)-7-methyl-N-(4-sulfamoylphenyl)-5,6,7,8-tetrahydroimidazo[1,5-a]pyrazine-1-carboxamide] | > 10000 |  |  |
| CNC(=O)[C@@H](NC(=O)c1nc(-c2ccccc2)n2c1CN(c1cccc(Cl)n1)CC2)C(C)(C)C [Compound 299, (S)-7-(6-chloropyridin-2-yl)-N-(3,3-dimethyl-1-(methylamino)-1-oxobutan-2-yl)-3-phenyl-5,6,7,8-tetrahydroimidazo[1,5-a]pyrazine-1-carboxamide] |  | − |  |
| CC(C)(C)CNC(=O)c1nc(-c2ccccc2)n2c1CNCC2 [Compound 24, N-neopentyl-3-phenyl-5,6,7,8-tetrahydroimidazo[1,5-a]pyrazine-1-carboxamide] |  | + |  |
| CCCc1nc(C(=O)N[C@H](C(=O)NC)C(C)(C)C)c2n1CCCN(C)C2 [Compound 485, (S)-N-(3,3-dimethyl-1-(methylamino)-1-oxobutan-2-yl)-8-methyl-3-propyl-6,7,8,9-tetrahydro-5H-imidazo[1,5-a][1,4]diazepine-1-carboxamide] |  | + |  |
| CNC(=O)[C@H](C)NC(=O)c1nc(-c2ccccc2)n2c1CN(Cc1cncnc1)CC2 [Compound 77, (S)-N-(1-(methylamino)-1-oxopropan-2-yl)-3-phenyl-7-(pyrimidin-5-ylmethyl)-5,6,7,8-tetrahydroimidazo[1,5-a]pyrazine-1-carboxamide] | > 10000 |  |  |
| CNC(=O)[C@@H](NC(=O)c1nc(-c2ccccc2)n2c1CN(c1cnccn1)CC2)C(C)(C)C [Compound 301, (S)-N-(3,3-dimethyl-1-(methylamino)-1-oxobutan-2-yl)-3-phenyl-7-(pyrazin-2-yl)-5,6,7,8-tetrahydroimidazo[1,5-a]pyrazine-1-carboxamide] |  | + |  |
| CNC(=O)[C@@H](NC(=O)c1nc(/C=C/CN2CCOCC2)n2c1CN(C)CC2)C(C)(C)C [Compound 286, (S,E)-N-(3,3-dimethyl-1-(methylamino)-1-oxobutan-2-yl)-7-methyl-3-(3-morpholinoprop-1-enyl)-5,6,7,8-tetrahydroimidazo[1,5-a]pyrazine-1-carboxamide] |  | + |  |
| CNC(=O)[C@@H](NC(=O)c1nc(-c2ccc(OC)cc2C)n2c1CN(C)CCC2)C(C)(C)C [Compound 343, (S)-N-(3,3-dimethyl-1-(methylamino)-1-oxobutan-2-yl)-3-(4-methoxy-2-methylphenyl)-8-methyl-6,7,8,9-tetrahydro-5H-imidazo[1,5-a][1,4]diazepine-1-carboxamide] | > 10000 |  |  |
| CC(C)CN1CCn2c(-c3ccc(Cl)cc3)nc(C(=O)N[C@H](CO)C(C)(C)C)c2C1 [Compound 160, (S)-3-(4-chlorophenyl)-N-(1-hydroxy-3,3-dimethylbutan-2-yl)-7-isobutyl-5,6,7,8-tetrahydroimidazo[1,5-a]pyrazine-1-carboxamide] | > 10000 |  |  |
| CNC(=O)[C@@H](NC(=O)c1nc(CCC2CC2)n2c1CN(C)CCC2)C(C)(C)C [Compound 490, (S)-3-(2-cyclopropylethyl)-N-(3,3-dimethyl-1-(methylamino)-1-oxobutan-2-yl)-8-methyl-6,7,8,9-tetrahydro-5H-imidazo[1,5-a][1,4]diazepine-1-carboxamide] | > 10000 |  |  |
| CNC(=O)[C@@H](NC(=O)c1nc(-c2ccccc2)n2c1CN(S(=O)(=O)c1ccc(F)cc1)CCC2)C(C)(C)C [Compound 464, (S)-N-(3,3-dimethyl-1-(methylamino)-1-oxobutan-2-yl)-8-(4-fluorophenylsulfonyl)-3-phenyl-6,7,8,9-tetrahydro-5H-imidazo[1,5-a][1,4]diazepine-1-carboxamide] | > 10000 |  |  |
| CNC(=O)[C@@H](NC(=O)c1nc(-c2ccncc2)n2c1CN(C)CCC2)C(C)(C)C [Compound 402, (S)-N-(3,3-dimethyl-1-(methylamino)-1-oxobutan-2-yl)-8-methyl-3-(pyridin-4-yl)-6,7,8,9-tetrahydro-5H-imidazo[1,5-a][1,4]diazepine-1-carboxamide] |  | + |  |
| CNC(=O)[C@@H](NC(=O)c1nc(-c2ccccc2)n2c1CN(C(=O)OC(C)(C)C)CCC2)C(C)(C)C [Compound 312, (S)-tert-butyl 1-(3,3-dimethyl-1-(methylamino)-1-oxobutan-2-ylcarbamoyl)-3-phenyl-6,7-dihydro-5H-imidazo[1,5-a][1,4]diazepine-8(9H)-carboxylate] | > 10000 |  |  |
| CNC(=O)[C@@H](NC(=O)c1nc(C2=CCCCO2)n2c1CN(C)CCC2)C(C)(C)C [Compound 452, (S)-3-(3,4-dihydro-2H-pyran-6-yl)-N-(3,3-dimethyl-1-(metylamino)-1-oxobutan-2-yl)-8-methyl-6,7,8,9-tetrahydro-5H-imidazo[1,5-a][1,4]diazepine-1-carboxamide] |  | + |  |
| CNC(=O)[C@@H](NC(=O)c1nc(-c2ccc3c(c2)OCO3)n2c1CN(C)CCC2)C(C)(C)C [Compound 341, (S)-3-(benzo[d][1,3]dioxol-5-yl)-N-(3,3-dimethyl-1-(methylamino)-1-oxobutan-2-yl)-8-methyl-6,7,8,9-tetrahydro-5H-imidazo[1,5-a][1,4]diazepine-1-carboxamide] |  | + |  |
| O=C(c1nc(-c2ccccc2)n2c1CN(S(=O)(=O)c1ccc(F)cc1)CC2)N1CCOCC1 [Compound 105, (7-(4-fluorophenylsulfonyl)-3-phenyl-5,6,7,8-tetrahydroimidazo[1,5-a]pyrazine-1-yl)(morpholino)methanone] |  |  | EC50 (groups >100 nM-10 μM and >10 μM, cAMP, CHO-K1 hCB2, read-out: EC50 HCB2): > 10000 nM |
| CNC(=O)[C@H](CC(C)C)NC(=O)c1nc(-c2ccc(F)cc2)n2c1CN(C)CCC2 [Compound 530, (S)-3-(4-fluorophenyl)-8-methyl-N-(4-methyl-1-(methylamino)-1-oxopentan-2-yl)-6,7,8,9-tetrahydro-5H-imidazo[1,5-a][1,4]diazepine-1-carboxamide] |  | + |  |
| CNC(=O)[C@@H](NC(=O)c1nc(-c2c(F)cccc2F)n2c1CN(C)CCC2)C(C)(C)C [Compound 601, (S)-3-(2,6-difluorophenyl)-N-(3,3-dimethyl-1-(methylamino)-1-oxobutan-2-yl)-8-methyl-6,7,8,9-tetrahydro-5H-imidazo[1,5-a][1,4]diazepine-1-carboxamide] |  | + |  |
| COC(=O)N1CCn2c(-c3ccccc3)nc(C(=O)NC3C4(C)CCC(C4)C3(C)C)c2C1 (centres unmarked) [Compound 178, methyl 3-phenyl-1-(1,3,3-trimethylbicyclo[2.2.1]heptan-2-ylcarbamoyl)-5,6-dihydroimidazo[1,5-a]pyrazine-7(8H)-carboxylate] |  | + |  |
| CN1CCn2c(-c3ccccc3)nc(C(=O)CCCc3ccccc3)c2C1 [Compound 294, 1-(7-methyl-3-phenyl-5,6,7,8-tetrahydroimidazo[1,5-a]pyrazin-1-yl)-4-phenylbutan-1-one] |  | − |  |
| CNC(=O)[C@@H](NC(=O)c1nc(-c2ccccc2)n2c1CN(C(=O)OC(C)(C)C)CC2)C(C)(C)C [Compound 1, (S)-tert-butyl 1-(3,3-dimethyl-1-(methylamino)-1-oxobutan-2-ylcarbamoyl)-3-phenyl-5,6-dihydroimidazo[1,5-a]pyrazine-7(8H)-carboxylate] |  | − |  |
| CNC(=O)[C@@H](NC(=O)c1nc(/C=C/CN2CCCC2)n2c1CN(C)CC2)C(C)(C)C [Compound 288, (S,E)-N-(3,3-dimethyl-1-(methylamino)-1-oxobutan-2-yl)-7-methyl-3-(3-(pyrrolidin-1-yl)prop-1-enyl)-5,6,7,8-tetrahydroimidazo[1,5-a]pyrazine-1-carboxamide] |  | − |  |
| CC(C)(C)[C@@H](CO)NC(=O)c1nc(-c2ccccc2)n2c1CN(S(=O)(=O)c1ccc(F)cc1)CC2 [Compound 101, (S)-7-(4-fluorophenylsulfonyl)-N-(1-hydroxy-3,3-dimethylbutan-2-yl)-3-phenyl-5,6,7,8-tetrahydroimidazo[1,5-a]pyrazine-1-carboxamide] |  | − |  |
| Cc1noc([C@@H](NC(=O)c2nc(-c3ccccc3)n3c2CNCCC3)C(C)(C)C)n1 [Compound 519, (S)-N-(2,2-dimethyl-1-(3-methyl-1,2,4-oxadiazol-5-yl)propyl)-3-phenyl-6,7,8,9-tetrahydro-5H-imidazo[1,5-a][1,4]diazepine-1-carboxamide] |  | + |  |
| CNC(=O)[C@@H](NC(=O)c1nc(-c2ccccc2OC(F)(F)F)n2c1CN(C)CCC2)C(C)(C)C [Compound 333, (S)-N-(3,3-dimethyl-1-(methylamino)-1-oxobutan-2-yl)-8-methyl-3-(2-(trifluoromethoxy)phenyl)-6,7,8,9-tetrahydro-5H-imidazo[1,5-a][1,4]diazepine-1-carboxamide] |  | + |  |
| CNC(=O)[C@@H](NC(=O)c1nc(-c2csc3ccccc23)n2c1CN(C)CCC2)C(C)(C)C [Compound 354, (S)-3-(benzo[b]thiophen-3-yl)-N-(3,3-dimethyl-1-(methylamino)-1-oxobutan-2-yl)-8-methyl-6,7,8,9-tetrahydro-5H-imidazo[1,5-a][1,4]diazepine-1-carboxamide] |  | + |  |
